In PubChem BioAssay AID504332 (National Center for Advancing Translational Sciences (NCATS), 2011):
Several values for one entry are separate records, joined by “and”; a condition that tells them apart may be missing. Identical values can stand only once. Screen size: about 350,000 compounds; about 31,000 (8.9%) were called active. This list was built around the results that the source calls inconclusive (neither active nor inactive); the mix of calls is not that of the screen. Calls follow the shape of the dose curve; as a rule, active = well fitted inhibition curve with a large enough effect; inconclusive = small, poorly fitted or top-dose-only effect; inactive = no such curve, though single readings can be large or run the other way. Where the call is inconclusive, the potency comes from a doubtful curve fit. More than one record can exist for a structure, and the calls need not agree.

The compounds below were run against Histone-lysine N-methyltransferase EHMT2 (Homo sapiens) (UniProt Q96KQ7) (assay: qHTS Assay for Inhibitors of Histone Lysine Methyltransferase G9a). Settings: G9a H3K9 monomethylation, AlphaScreen, 2 h; activity, negative = inhibition: at 59 µM (top of the series) unless noted.
Procedure, shortened: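 Methyltransferase reactions run at room temperature for 2 h (20 nM enzyme, 500 nM biotin-H3K9 peptide, 20 uM SAM) after a 15 min compound preincubation; product detected by AlphaScreen beads and anti-H3K9me1 antibody.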
% is scaled to controls: 0 for no effect and ±100 for the full control effect; potency is read from the fitted curve at half-maximal effect; tags tell the direction and shape of the fitted curve.
Also: nearly all actives have a fitted effect of over 75% in size.

Chain of UniProt Q96KQ7 (Q96KQ7 whole entry, looked up): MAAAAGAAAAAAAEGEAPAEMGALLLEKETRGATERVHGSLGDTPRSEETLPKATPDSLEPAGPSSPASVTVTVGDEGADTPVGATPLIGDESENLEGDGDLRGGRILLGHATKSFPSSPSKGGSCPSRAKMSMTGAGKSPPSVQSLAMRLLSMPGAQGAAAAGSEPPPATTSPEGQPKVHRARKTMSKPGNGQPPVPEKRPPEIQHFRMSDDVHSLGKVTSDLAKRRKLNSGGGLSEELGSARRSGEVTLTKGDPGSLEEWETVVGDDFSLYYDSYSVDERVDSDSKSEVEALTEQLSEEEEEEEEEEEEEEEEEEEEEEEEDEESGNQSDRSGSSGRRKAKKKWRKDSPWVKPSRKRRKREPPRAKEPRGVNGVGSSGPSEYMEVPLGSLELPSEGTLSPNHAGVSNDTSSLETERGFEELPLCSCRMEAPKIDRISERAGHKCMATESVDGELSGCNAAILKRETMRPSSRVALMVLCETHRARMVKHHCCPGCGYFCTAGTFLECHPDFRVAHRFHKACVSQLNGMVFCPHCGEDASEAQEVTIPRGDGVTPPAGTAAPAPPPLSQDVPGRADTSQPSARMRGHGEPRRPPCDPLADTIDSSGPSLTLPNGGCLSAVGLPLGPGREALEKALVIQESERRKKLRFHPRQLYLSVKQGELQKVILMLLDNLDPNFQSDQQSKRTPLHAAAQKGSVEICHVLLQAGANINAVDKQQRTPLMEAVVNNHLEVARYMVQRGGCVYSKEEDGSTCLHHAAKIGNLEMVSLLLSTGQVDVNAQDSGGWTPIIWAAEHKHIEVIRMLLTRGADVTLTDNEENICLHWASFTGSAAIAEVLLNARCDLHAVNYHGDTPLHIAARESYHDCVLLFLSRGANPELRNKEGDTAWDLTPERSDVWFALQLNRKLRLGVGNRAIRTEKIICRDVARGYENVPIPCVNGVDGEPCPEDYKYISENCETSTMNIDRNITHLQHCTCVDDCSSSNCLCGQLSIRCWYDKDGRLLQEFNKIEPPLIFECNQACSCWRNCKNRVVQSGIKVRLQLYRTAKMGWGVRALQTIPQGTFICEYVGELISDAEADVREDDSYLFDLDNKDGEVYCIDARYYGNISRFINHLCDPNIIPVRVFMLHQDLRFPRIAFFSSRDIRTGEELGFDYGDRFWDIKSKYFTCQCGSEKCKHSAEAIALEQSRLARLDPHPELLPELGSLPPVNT

Row | Structure (SMILES) | activity, negative = inhibition | Potency
1 | COC(=O)C1=C(c2ccc(Cl)c(C(F)(F)F)c2)C[C@@H]2CC[C@H]1N2C(=O)NCCOc1ccccc1Cl | inactive: -4.86% [at 2.33 µM] | –
2 | NC(N)=Nc1ccc2[nH]c3c(c2c1)C[C@@]1(O)[C@H]2Cc4ccc(O)c5c4[C@@]1(CCN2CC1CC1)[C@H]3O5 | – | active: 3.55 µM and active: 1.26 µM
3 | c1cncc(C2CCCN2)c1 (stereo not drawn) | – | inconclusive: 12.6 µM [inhibitor, partial curve, poor fit]
4 | O=C(Cn1c(=S)[nH]c2ccccc2c1=O)N1CCC2(CC1)OCCO2 | – | inactive
5 | CN1C(=O)c2ccccc2Sc2ccc(C(=O)N3CCC4(CC3)OCCO4)cc21 | – | inactive
6 | S=P(NC1CCCCC1)(N1CC1)N1CC1 | – | inconclusive: 56.2 µM [inhibitor, partial curve, poor fit]
7 | CC(Nc1cc(C)cc(C)c1)=[N+](C)CCNS(=O)(=O)c1ccc(Cl)cc1 | – | active: 8.91 µM
8 | CN1CCN2c3ccc(N)cc3CC3(C(=O)NC(=O)NC3=O)C2C1 (stereo not drawn) | – | active: 17.8 µM
9 | O=P(O)(O)C12CC3CC(CC(C3)C1)C2 | – | inconclusive: 79.4 µM [inhibitor, single point]
10 | CCN(CC)c1ccc(/C=C2\C(=O)NC(=O)N(CC3CCCO3)C2=O)cc1 (stereo not drawn) | – | inconclusive: 89.1 µM [inhibitor, single point]
11 | COc1ccccc1N1CCN(Cc2ccc(SC)cc2)CC1 | – | active: 10 µM
12 | COc1ccc(C(C)=O)cc1CC(C(=O)c1ccc(Br)cc1)N(C)C (stereo not drawn) | – | inconclusive: 89.1 µM [inhibitor, single point]
13 | O=C(Nc1cccnc1)C1CCN(S(=O)(=O)c2cccs2)CC1 | – | inactive
14 | COc1ccc(CNCCc2c[nH]c3ccccc23)c(OC)c1OC | – | inconclusive: 0.316 µM [inhibitor, partial curve, poor fit]
15 | CC(C)(C)NCc1cccn1-c1sc2c(c1C#N)CCCC2 | – | inconclusive: 35.5 µM [inhibitor, single point]
16 | CC(c1ccccc1)n1cncc1C(=O)O (stereo not drawn) | – | inconclusive: 39.8 µM [inhibitor, single point]
17 | COCCCNC(=O)Cn1cc(/C=C2\C(=O)NC(=O)N(c3ccccc3F)C2=O)c2ccccc21 | – | inconclusive: 79.4 µM [inhibitor, single point]
18 | CN(C)c1ccc(/C=C/[N+](=O)[O-])cc1 | – | active: 70.8 µM
19 | Cn1c(O)c(C(=O)c2ccccc2Cl)c(=O)n(C)c1=O | – | inconclusive: 39.8 µM [inhibitor, single point]
20 | Cc1nnc2n1-c1ccc(Cl)cc1C(c1ccccc1)=NC2 | – | inactive
21 | Cc1cc(=O)[nH]c(SCc2nc3ccccc3c(=O)n2-c2ccccc2C)n1 | – | inactive
22 | COc1ccc(CCNCc2ccccc2F)cc1OC | – | inactive
23 | CCCCN1CCC(O)(c2ccccc2)C(C(=O)c2ccccc2)C1 (stereo not drawn) | – | inconclusive: 31.6 µM [inhibitor, single point]
24 | COc1ccc(C(=O)Cn2c(NCCCl)nc3ccccc32)cc1 | – | inconclusive: 89.1 µM [inhibitor, single point]
25 | CN1CC[C@@H]2CN3CCc4cccc(c43)[C@@H]2C1 | – | inconclusive: 14.1 µM [inhibitor, single point]

Row | Structure (SMILES) | activity, negative = inhibition | Potency
26 | Clc1ccc2nc3c(c(-c4ccccc4)c2c1)CNCC3 | – | inactive
27 | CC(c1ccccc1)(c1ccccc1)c1ccncc1 | – | inactive
28 | Cc1cc(NC(=O)COC(=O)c2c(C)nn(Cc3ccccc3Cl)c2Cl)no1 | inactive: -19% [at 2.33 µM] | –
29 | O=C1CC(NC(=O)C(F)(F)F)=NN1c1ccccc1 | – | inconclusive: 44.7 µM [inhibitor, partial curve]
30 | O=P1(NCc2ccco2)COc2ccccc2OC1 | inconclusive: -57% [inhibitor] [at 102 µM] | –
31 | CNS(=O)(=O)c1ccc(-c2ccc(C=C3C(=O)NC(=O)NC3=O)o2)cc1 | – | active: 8.91 µM
32 | CC(C)(C)c1ccc(O)cc1 | – | inactive
33 | CC1CCCCN1CCNS(=O)(=O)c1ccc2c(c1)oc(=O)n2C (stereo not drawn) | – | inconclusive: 15.8 µM [inhibitor, partial curve]
34 | CCOC(=O)c1[nH]c(=O)c2ccccc2c1O | – | inconclusive: 39.8 µM [inhibitor, single point]
35 | CCOc1cc2c(cc1OCC)-n1cccc1C(c1cccc([N+](=O)[O-])c1)NC2 (stereo not drawn) | – | active: 50.1 µM
36 | O=[N+]([O-])c1cc2c(cc1CNCCc1ccc3c(c1)OCO3)OCO2 | – | inconclusive: 2.82 µM [inhibitor, full curve, poor fit]
37 | O=C1C(Cl)=C(N2CCOCC2)C(=O)N1c1ccccc1F | – | active: 35.5 µM
38 | CCCCC/C=C\C/C=C\C/C=C\C/C=C\CCCC(=O)OCCN | – | inconclusive: 14.1 µM [inhibitor, partial curve, poor fit]
39 | Cc1cccc2c(CCN)c[nH]c12 | – | inconclusive: 50.1 µM [inhibitor, partial curve]
40 | CCn1c(O)c(C(=O)CC2NCCc3ccccc32)c(=O)n(CC)c1=S (stereo not drawn) | – | inconclusive: 39.8 µM [inhibitor, single point]
41 | Cc1cc(-c2n[nH]c(=S)n2-c2ccc(C)c(C)c2)no1 | – | active: 2.51 µM
42 | COc1cccc(N2CCN(Cc3cccc(Cl)c3)CC2)c1 | – | inconclusive: 79.4 µM [inhibitor, single point]
43 | Cc1nn(Cc2ccc(Cl)cc2Cl)c(Cl)c1C(=O)Nc1ccc(OC(F)F)cc1 | – | inconclusive: 39.8 µM [inhibitor, single point]
44 | CN1CC[C@]2(C)c3cc(O)ccc3N(C)[C@@H]12 | – | active: 8.91 µM
45 | COC(=O)c1ccc(N2C(=O)CC(N3CCC(n4c(=O)[nH]c5ccccc54)CC3)C2=O)cc1 (stereo not drawn) | inconclusive: -80.7% [inhibitor] | –
46 | O=c1[nH]c(=O)n(-c2cccc(F)c2)c(O)c1/C=C1\C=Nc2ccccc21 | – | inactive
47 | COc1ccc(OCC(=O)N2CCCC(N3CCN(c4ccccc4C)CC3)C2)cc1 (stereo not drawn) | inactive: 20.9% [at 0.501 µM] | –
48 | COc1ccc(N=C2SCCCN2C)cc1 | – | inconclusive: 2.24 µM [inhibitor, full curve, poor fit]
49 | COc1ccc(CNCCc2c(C)[nH]c3ccc(OC(F)(F)F)cc23)c(OC)c1 | – | active: 44.7 µM
50 | c1cncc([C@@H]2CCCCN2)c1 | – | inactive

Row | Structure (SMILES) | activity, negative = inhibition | Potency
51 | COc1cc(C)cc(CN2CC=C(c3ccccc3)CC2)c1O | – | inconclusive: 79.4 µM [inhibitor, single point]
52 | Cn1c(=O)cc(OCC(=O)N2CCN(C3CCCCC3)CC2)c2ccccc21 | – | inactive
53 | Cc1ccc2c(c1)CC1(CN2C)C(=O)NC(=O)N(c2cccc(C)c2C)C1=O (stereo not drawn) | – | active: 7.94 µM
54 | COc1cc(Cc2ccc(N)c(OC)c2)ccc1N | – | active: 70.8 µM
55 | CCN(CC(=O)Nc1ccccc1C(F)(F)F)C(=O)Cn1c(=O)cnc2ccccc21 | – | inconclusive: 56.2 µM [inhibitor, partial curve, poor fit]
56 | CCn1cc(C(=O)O)c(=O)c2cc(F)c(N3CCNCC3)cc21 | – | inactive and active: 8.91 µM
57 | Cc1cc([C@@H]2CCCN2C)on1 | – | inconclusive: 8.44 µM [inhibitor, partial curve]
58 | Cn1c(O)c(C=NC(CC(N)=O)C(=O)O)c(=O)n(C)c1=O (stereo not drawn) | – | inconclusive: 89.1 µM [inhibitor, partial curve, poor fit]
59 | CN1CCN(c2ccc(NC(=O)Oc3ccccc3)cc2)CC1 | – | active: 3.55 µM
60 | S=c1[nH]nc(-c2ccco2)n1-c1cccc2ccccc12 | – | inconclusive: 1 µM [inhibitor, partial curve, poor fit]
61 | O=C1C=C2C=C[C@H]3C[C@@]2(O1)[C@H]1CCCCN31 | – | inactive
62 | Cc1ccc(NC(=O)CN(C)CC(=O)Nc2cccc(F)c2)cc1[N+](=O)[O-] | – | inconclusive: 39.8 µM [inhibitor, partial curve, poor fit]
63 | Cc1[nH]n(-c2ccccc2)c(=O)c1C(c1cccc([N+](=O)[O-])c1O)c1c(C)[nH]n(-c2ccccc2)c1=O | – | active: 44.7 µM
64 | CC(C)[C@@]1(NC(=O)[C@@H]2C=C3c4cccc5[nH]cc(c45)C[C@H]3N(C)C2)O[C@@]2(O)[C@@H]3CCCN3C(=O)[C@H](Cc3ccccc3)N2C1=O | – | active: 8.91 µM
65 | O=c1[nH]c(=O)n(Cc2ccccc2)c(O)c1C=NCCN1CCOCC1 | – | inconclusive: 1.41 µM [inhibitor, full curve, poor fit]
66 | CN1C(=O)C(Cc2ccc3c(c2)OCO3)C(=O)N(C)C1=O | – | inconclusive: 1.12 µM [inhibitor, full curve, poor fit]
67 | CC1(C)C(c2ccccc2)=NC(c2cccnc2)=[N+]1[O-] | – | inconclusive: 1.26 µM [inhibitor, single point]
68 | NC(CO)Cc1ccccc1 (stereo not drawn) | inactive: -2.22% [at 2.33 µM] | –
69 | Cc1ccc(-c2nc3ccccc3c(=O)n2-c2ccc(Br)cn2)cc1 | – | inactive
70 | COc1ccccc1N1C(=O)NC(=O)/C(=C/c2ccc([N+](=O)[O-])s2)C1=O | – | active: 8.91 µM
71 | CCOC(=O)c1c(/N=C/C2C(=O)NC(=O)NC2=O)sc2c1CCC2 | – | inconclusive: 89.1 µM [inhibitor, single point]
72 | O=C1C2CCCN2C(c2ccncc2)N1c1ccc(Cl)c(Cl)c1 (stereo not drawn) | – | inconclusive: 89.1 µM [inhibitor, partial curve, poor fit]
73 | CCCNC(=O)c1c(N)n(Cc2ccco2)c2nc3ccccc3nc12 | – | inconclusive: 5.01 µM [inhibitor, full curve, poor fit]
